One molecule from patent publication US20260199505A1, “COMBINATION THERAPY COMPRISING BISPECIFIC ANTIBODIES COMPRISING AN NRP1 BINDING DOMAIN” (Pinetree Therapeutics, Inc., priority 2022, published 2026) can be followed below.

One test deals with H1975. The experiment in a line: H1975 (Osimertinib-sensitive, parental) xenograft mouse model. The format is in vivo. The note with it: EGFR double mutations, unpublished data.
The next test can be described thus: In vitro cell viability. The format is cell-based.
The test system of a further test is H1975-HGF. The test is described as follows: H1975-HGF (HGF-overexpressing) xenograft model. The format is in vivo, mouse. The procedure: The H1975-HGF cell line was prepared by recombinantly engineering the H1975 cell line to express HGF by standard methods. Thus, the H1975-HGF xenograft model represents a dual activation model in which both the EGFR and cMET pathways are constitutively activated.

Another test relates to H1975-OR. The experiment in a line: Osimertinib-resistant mouse xenograft model (H1975-OR). The format is in vivo. The note with it: EGFR double mutations, unpublished data. An excerpt: Panitumumab is a fully humanized anti-EGFR monoclonal antibody, which binds to EGFR and block the EGFR signaling. Osimertinib is an EGFR tyrosine kinase inhibitor.

B1: EGFR degrader: bispecific antibody (EGFR×NRP1 Ab) that specifically binds to EGFR and NRP1; polypeptide sequences SEQ ID NOs: 11 and 12 (antibody)
heavy: QVQLQESGPGLVKPSETLSLTCTVSGGSVSSGDYYWTWIRQSPGKGLEWIGHIYYSGNTNYNPSLKSRLTISIDTSKTQFSLKLSSVTAADTAIYYCVRDRVTGAFDIWGQGTMVTVSS[sequence of human IgG1 constant region not given]GGGGSGGGGSGGGGSEVQLLESGGGLVQPGGSLRLSCAASGFTFSSYAMSWVRQAPGKGLEWVSQISPAGGYTNYADSVKGRFTISRDNSKNTLYLQMNSLRAEDTAVYYCARGELPYFRMSKVMDVWGQGTLVTVSSGGGGSGGGGSGGGGSEIVLTQSPGTLSLSPGERATLSCRASQFLSSYLAWYQQKPGQAPRLLIYGASARASGIPDRFSGSGSGTDFTLTISRLEPEDFAVYYCQQYLASPATFGQGTKVEIK
light: DIQMTQSPSSLSASVGDRVTITCQASQDISNYLNWYQQKPGKAPKLLIYDASNLETGVPSRFSGSGSGTDFTFTISSLQPEDIATYFCQHFDHLPLAFGGGTKVEIKRTVAAPSVFIFPPSDEQLKSGTASVVCLLNNFYPREAKVQWKVDNALQSGNSQESVTEQDSKDSTYSLSSTLTLSKADYEKHKVYACEVTHQGLSSPVTKSFNRGEC
With B1, the tumor growth entry in the test on H1975 was “significantly inhibits tumor growth”; in the test on H1975-HGF (Osimertinib-refractory (H1975-HGF) xenograft, EGFR double mutations, unpublished data) it was “significantly inhibits tumor growth”; with H1975-OR, “significantly inhibits tumor growth”. Also, the “in vitro cell viability” value in “In vitro cell viability” is reported as “reduces in vitro cell viability”. In the test on H1975-HGF (H1975-HGF, second set, Osimertinib 10 mg/kg i.p. QD, Crizotinib 20 mg/kg i.p. QD, EGFR degrader 15 mg/kg i.p. QW), the “tumor volume over time (FIG. 6B)” value is on record as “did exhibit tumor growth inhibition”.
